# This is one part of the list. The full chains were built here from the parent and the listed change. Inactive controls read about 0.05.
# B1: TEV protease; numbered along this chain (parent)
# chain: MGESLFKGPRDYNPISSSICHLTNESDGHTTSLYGIGFGPFIITNKHLFRRNNGTLVVQSLHGVFKVKDTTTLQQHLVDGRDMIIIRMPKDFPPFPQKLKFREPQREERICLVTTNFQTKSMSSMVSDTSCTFPSGDGIFWKHWIQTKDGQCGSPLVSTRDGFIVGIHSASNFTNTNNYFTSVPKNFMELLTNQEAQQWVSGWRLNADSVLWGGHKVFMVKPEEPFQPVKEATQL
# Variants of: B1
# Test: raw area under fraction-flipped curve 0-4 h after induction (AUC4h, not background-subtracted), DNA-recorder readout of cleavage of the substrate (dimensionless); higher = more cleavage of the substrate by the protease variant
# Conditions: temperature: 34 °C; time window: 0-4 h after rhamnose induction
# 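Also: Bxb1 expression induced with 0.2% (w/v) L-rhamnose at OD600 near 0.5, cultures sampled hourly, flipped fraction per protease–substrate barcode pair counted by paired-end Illumina sequencing.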
Variant,area with substrate ENLYDQS,area with substrate ENLYEQS,area with substrate ENLYGQS,area with substrate ENLYHQS,area with substrate ENLYIQS,area with substrate ENLYKQS,area with substrate ENLYLQS,area with substrate ENLYMQS,area with substrate ENLYNQS,area with substrate ENLYPQS,area with substrate ENLYQQS,area with substrate ENLYSQS,area with substrate ENLYTQS,area with substrate ENLYVQS,area with substrate ENLYWQS,area with substrate ENLYYQS,area with substrate ENLYRQS
MGESLFKGPRDYNPISSSICHLTNESDGYTTSLYGIGFGPFIITNKHLFRRNNGTLVVQSLHGVFKVKDTTTLQQHLVDGRDMIIIRMPKDFPPFPQKLKFREPQREERICLVTTNFQTKSMSSMVSDTSCTFPSGDGIFWKHWIQTKDGQCGSPLVSTRDGFIVGIHSASNFTNTNNYFTSVPKNFMELLTNQEAQQWVSGWRLNADSVLWGGHKVFMVKPEEPFQPVKEATQL [H29Y],0.0582,0.064,0.0952,0.0779,0.138,0.0592,0.175,0.0984,0.059,0.0728,0.0651,0.0853,0.105,0.119,0.0913,0.0636,
MGESLFKGPRDYNPISSSICHLTNESDGHTTSLYGILFGPFIITNKHLFRRNNGTLVVQSLHGVFKVKDTTTLQQHLVDGRDMIIIRMPKDFPPFPQKLKFREPQREERICLVTTNFQTKSMSSMVSDTSCTFPSGDGIFWKHWIQTKDGQCGSPLVSTRDGFIVGIHSASNFTNTNNYFTSVPKNFMELLTNQEAQQWVSGWRLNADSVLWGGHKVFMVKPEEPFQPVKEATQL [G37L],0.0544,0.0491,,0.0612,0.102,,0.0606,,0.0743,0.0575,0.0567,0.0552,0.0651,0.12,0.0554,,0.092
MGESLFKGPRDYNPISSSICHLTNESDGHTTSLYGCGFGPFIITNKHLFRRNNGTLVVQSLHGVFKVKDTTTLQQHLVDGRDMIIIRMPKDFPPFPQKLKFREPQREERICLVTTNFQTKSMSSMVSDTSCTFPSGDGIFWKHWIQTKDGQCGSPLVSTRDGFIVGIHSASNFTNTNNYFTSVPKNFMELLTNQEAQQWVSGWRLNADSVLWGGHKVFMVKPEEPFQPVKEATQL [I36C],0.0532,0.0553,0.0522,0.0671,0.108,0.0666,0.0619,0.078,0.0589,0.072,0.0629,0.0566,0.0735,0.121,0.0797,,
MGESLFKGPRDYNPISSSIAHLTNESDGHTTSLYGIGFGPFIITNKHLFRRNNGTLVVQSLHGVFKVKDTTTLQQHLVDGRDMIIIRMPKDFPPFPQKLKFREPQREERICLVTTNFQTKSMSSMVSDTSCTFPSGDGIFWKHWIQTKDGQCGSPLVSTRDGFIVGIHSASNFTNTNNYFTSVPKNFMELLTNQEAQQWVSGWRLNADSVLWGGHKVFMVKPEEPFQPVKEATQL [C20A],0.0567,0.0818,0.0744,0.0665,,0.023,0.0576,,0.0684,0.0811,,0.103,0.0638,0.07,0.076,,0.0527
MGESLFKGPRDYNPISSSICHLTNESDGHTTSLYGIGFGPFIITNKHLFLRNNGTLVVQSLHGVFKVKDTTTLQQHLVDGRDMIIIRMPKDFPPFPQKLKFREPQREERICLVTTNFQTKSMSSMVSDTSCTFPSGDGIFWKHWIQTKDGQCGSPLVSTRDGFIVGIHSASNFTNTNNYFTSVPKNFMELLTNQEAQQWVSGWRLNADSVLWGGHKVFMVKPEEPFQPVKEATQL [R50L],0.0661,,0.0698,0.0647,0.147,0.0722,,0.0673,0.0619,0.065,0.0599,0.0857,0.0968,0.0753,0.102,0.0792,0.0467
MGESLFKGPRDYNPISSSICHLTNESDGHTTSLYGIGFGPFIITNKHLFRRNNGTLVVQSLHGNFKVKDTTTLQQHLVDGRDMIIIRMPKDFPPFPQKLKFREPQREERICLVTTNFQTKSMSSMVSDTSCTFPSGDGIFWKHWIQTKDGQCGSPLVSTRDGFIVGIHSASNFTNTNNYFTSVPKNFMELLTNQEAQQWVSGWRLNADSVLWGGHKVFMVKPEEPFQPVKEATQL [V64N],0.0659,0.0662,0.0652,0.0684,0.134,0.0445,0.0864,0.0826,0.135,0.0635,0.0602,0.0751,0.0825,0.131,0.0824,0.0718,0.0569
MGESLFKGPRDYNPISSSICHLTNESDGHTTSLYGIGFGPFIITNKHLFRRNAGTLVVQSLHGVFKVKDTTTLQQHLVDGRDMIIIRMPKDFPPFPQKLKFREPQREERICLVTTNFQTKSMSSMVSDTSCTFPSGDGIFWKHWIQTKDGQCGSPLVSTRDGFIVGIHSASNFTNTNNYFTSVPKNFMELLTNQEAQQWVSGWRLNADSVLWGGHKVFMVKPEEPFQPVKEATQL [N53A],0.0539,0.0772,0.0542,0.0617,0.107,0.0671,,,0.0632,0.06,0.0512,0.0507,0.0684,,0.0787,0.0615,0.068
MGESLFKGPRDYNPISSSICHLTNESDGHTTSLYGIGFGPNIITNKHLFRRNNGTLVVQSLHGVFKVKDTTTLQQHLVDGRDMIIIRMPKDFPPFPQKLKFREPQREERICLVTTNFQTKSMSSMVSDTSCTFPSGDGIFWKHWIQTKDGQCGSPLVSTRDGFIVGIHSASNFTNTNNYFTSVPKNFMELLTNQEAQQWVSGWRLNADSVLWGGHKVFMVKPEEPFQPVKEATQL [F41N],0.0491,0.096,,0.0567,,0.0752,0.0336,0.0749,0.0786,,,,0.0676,,0.0617,,0.0474
MGESLFKGPRDYNPISSSICHLTNESDGHTTSLYGIGFGPFWITNKHLFRRNNGTLVVQSLHGVFKVKDTTTLQQHLVDGRDMIIIRMPKDFPPFPQKLKFREPQREERICLVTTNFQTKSMSSMVSDTSCTFPSGDGIFWKHWIQTKDGQCGSPLVSTRDGFIVGIHSASNFTNTNNYFTSVPKNFMELLTNQEAQQWVSGWRLNADSVLWGGHKVFMVKPEEPFQPVKEATQL [I42W],0.0495,0.0479,0.0817,0.0548,0.0858,0.0321,,0.0687,0.0582,0.0684,0.04,0.0553,0.06,,0.0603,0.0711,0.0497

# From the supplement of paper PMC12217912
